# Measured values taken from PMC12136788.
# The list shows a part of the results.
# T1: UNK ZnF1-3 (human, UniProt Q9C0B0 31-174)
# T1 sequence: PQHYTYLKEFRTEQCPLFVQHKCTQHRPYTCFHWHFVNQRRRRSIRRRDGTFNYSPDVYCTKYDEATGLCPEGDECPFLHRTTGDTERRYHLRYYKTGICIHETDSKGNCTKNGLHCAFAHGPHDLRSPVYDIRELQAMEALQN
# B1: chrX:69798090:69798091:-_ENSMUSG00000031343_ENSMUST00000055966|mus_mus|mus_mus_mus_hu_False|48_58 (ssRNA)
# RNA: GGGAGUUCUACAGUCCGACGAUCAAGUCCCCGGGUUCUUGUCGUCUUGAUUCCCCUUGACCAGUGGUUCCAGGGAGAAUACUAAUCAGGAGAAGAAUCCCAAGGCUGGUCAUGUAACAGUGACUUGUUUGUGUGAUUAUCAUCCAACAGAGGAUUGAGCAUCA
# B2: chr18:52893488:52893489:-_ENSG00000196628_ENST00000354452|hu_hu|hu_hu_hu_mus_True|38_48 (ssRNA)
# RNA: GGGAGUUCUACAGUCCGACGAUCUAUUUAGACCAUUUCCGCGGAGUUAUGGCAUUUACUCAGUGCUGAUAGGUGGAAAAACUACUUGAACAGGGAUUUUUUUUUUUCUUAAUACAUGCCAAGAUUGUGUGGCUGUCAAAACAGCAACAGAGGAUUGAGCAUCA
# B3: 91408844_91410396_1912_CDS_ENSMUSG00000040549_ENSMUST00000099716|mouse|control|control (ssRNA)
# RNA: GGGAGUUCUACAGUCCGACGAUCUGCUAGCAUCUUCACCAAUGCCUGGCACGGCAUCUCAGUUCGCUCCAUUAGUUCAACAGCCUUUUGGAAUUCUUCCAUACAGGCCAGCCUUUCCUUCCAGUUGCUGCUGUCUAGAAGCUGCAACAGAGGAUUGAGCAUCA
# B4: chr12:48362563:48362564:+_ENSG00000134291_ENST00000256686|hu_hu|hu_hu_hu_mus_False|78_88 (ssRNA)
# RNA: GGGAGUUCUACAGUCCGACGAUCUCCGUCAAGCCCUUCGAUAGACCCAUAGACUCUUGGUAAAAACCACUUUGUAUGGGGAAGGAAAAGAAACGCCAAAAACUUUCCAAAAAGCGGGGGUGGGGUGAGGCGGGAGGGGGAGGUCAACAGAGGAUUGAGCAUCA
# B5: chr3:49395588:49395589:-_ENSG00000233276_ENST00000419783|hu_mus|FALSE|FALSE (ssRNA)
# RNA: GGGAGUUCUACAGUCCGACGAUCGUUCAUCUCGGUGUAGUCCCGGAUCGUGGUGCCUCAGAGAGACGCGACAUUCUCAAUGAGCAGCACCUUGCCCCGCAGGGAGCCCAGGCUCACAGGCUCCCCGCCCGUCAGCGGGCGCGCCAACAGAGGAUUGAGCAUCA
# B6: 141595562_141595682_167_5pUTR_ENSG00000069849_ENST00000286371|human|control|control (ssRNA)
# RNA: GGGAGUUCUACAGUCCGACGAUCCAGGCUCUGGUUGAGGGACUUCUUCUCGUUCUUCGUCAUGGUGUGCGCGCGGACGGCGAGAGGAGCUGCGGCCGCGGGGAUGGAGGCGGCGAGGGCUGCGGAGGCGCGUCCCGGCUCCGGCAACAGAGGAUUGAGCAUCA
# B7: chr1:163112212:163112213:-_ENSG00000143248_ENST00000313961|hu_hu|hu_hu_hu_mus_False|38_68 (ssRNA)
# RNA: GGGAGUUCUACAGUCCGACGAUCUUUUAUUAUCAGUAAGAGUGAGUUACAUACUAGGCAAAGUAUUGAAUACAAAAAUCAGGAAACAAACACUAUUUUUCUUGAAUUUAAAACUUUAUGAGCGAAGUGCUGGCACAGGACUUACAACAGAGGAUUGAGCAUCA
# B8: chr19:58207738:58207739:+_ENSMUSG00000054843_ENSMUST00000077282|mus_hu|motif|central (ssRNA)
# RNA: GGGAGUUCUACAGUCCGACGAUCCCCAGAAAGGUAUAGCAUGACUUUAACUAAACAUCACAUUGUGUCUCAUAAUUCUCGGCAAUUUGAAUUUUCAAGUUUUAAGAACCCAGUGGGAUUUGAGGUGAAUAAAACUUGAUAAUUCAACAGAGGAUUGAGCAUCA
# B9: chr14:66974463:66974464:+_ENSMUSG00000022044_ENSMUST00000074523|mus_hu|mus_mus_mus_hu_False|1_58 (ssRNA)
# RNA: GGGAGUUCUACAGUCCGACGAUCUUGUAGGACGACUUAUUCAGGGGAUCGGCCAGGAAGCAGGAGCAGAACAAGGACACUAGUGGGAGCUCCUUCAUCUUCUCUUUGUAGGCAGCAAGGGUCAUGUUUCUGGGAUCCUGGUGGCAACAGAGGAUUGAGCAUCA
# B10: chr2:129025431:129025432:+_ENSMUSG00000027397_ENSMUST00000028880|mus_hu|motif|central (ssRNA)
# RNA: GGGAGUUCUACAGUCCGACGAUCGUACUGGUAAUCAGCGUUGCCAUUCUCUGGAGUAGUGGUUGUUUAGUAAGAGAACGGCUGAGCGCCUUUCAAGAUGUGUAAACAGAAUAUGAGGUAUCAAAAAUGCUAUAAUAAAUAAUACAACAGAGGAUUGAGCAUCA
# B11: 220363460_220363810_1716_CDS_ENSG00000118873_ENST00000358951|human|control|control (ssRNA)
# RNA: GGGAGUUCUACAGUCCGACGAUCAUCCUUGGCUCGUUCACUCUUCUUAUCACUCAGUGCUAAAUGGAAGGGAACGUUCACUGUUUUCACACUUCCAGACACUGGAUCAACCAGACAGAUCUGAUAAGUCUGUGGCUGCCAACUCAACAGAGGAUUGAGCAUCA
# B12: chr5:37680062:37680063:+_ENSMUSG00000029121_ENSMUST00000031004|mus_hu|mus_mus_mus_hu_False|18_88 (ssRNA)
# RNA: GGGAGUUCUACAGUCCGACGAUCUUUGGGUGUAGCUGGUACCUCGUACACAGGCCCGUCAUACAUGCCCCUGGAAACCCCUUGCAAUCCAAAAACCUUAUUCCUGAUUUUGACGCGCUGGUAGAGAUGCUCCGGGAACGCCUUCAACAGAGGAUUGAGCAUCA
# B13: chr14:102368134:102368135:+_ENSG00000078304_ENST00000445439|hu_hu|hu_hu_hu_mus_True|48_88 (ssRNA)
# RNA: GGGAGUUCUACAGUCCGACGAUCAAGAGGCUCCAUGAUCUUCACAAAUUCUGAUGGUUCAAUUACAUCUAAAAUUUCUUCUAAUUCGUUUAAGAACAUUACUUCUUUUGGACUGUGAGUCUUUGGCCAGUAUUUGAGAAGUGCCAACAGAGGAUUGAGCAUCA
# B14: 117559201_117559852_142_3pUTR_ENSMUSG00000033379_ENSMUST00000036380|mouse|control|control (ssRNA)
# RNA: GGGAGUUCUACAGUCCGACGAUCCAUCAAAGCGAAAGCCCAGGUCAAAGAUGGUGUAGCAGAUUCCCACAACGACCAUGCAGGCCCAGAAGGCCACAAAGAUCCCGAGGUAGAGCAACUCCAGCCCCGUCAUGGCAGCGGCGACAACAGAGGAUUGAGCAUCA
# B15: chr11:23185130:23185131:+_ENSMUSG00000020290_ENSMUST00000020538|mus_hu|FALSE|FALSE (ssRNA)
# RNA: GGGAGUUCUACAGUCCGACGAUCAAAUGGCAUCACUUCUCCAACCUGAACCUGAACGAAAUGCCUGCGGCAUUUUUGGGCUAUUUUAAUGAAAGUAUCACAAGCCAUAUCCUGGACUCCAUCAUGGGUCUCAUGCAUGAAUUCCAACAGAGGAUUGAGCAUCA
# B16: 70806291_70806411_3695_CDS_ENSG00000145734_ENST00000358731|human|control|control (ssRNA)
# RNA: GGGAGUUCUACAGUCCGACGAUCCUUGACCUCCUCUGGGCCAUUUUCCUCUGGGGAUAUUUCUCUUCUUCCAGUUUCUUCCAGAUCUUUGUCUAUUUCCUCAGUGGCAUCAAUCACCUCUGGUGUCUUCUCCCUUGGGGAAAUCAACAGAGGAUUGAGCAUCA
# B17: 37586386_37591453_2401_CDS_ENSG00000102710_ENST00000475892|human|control|control (ssRNA)
# RNA: GGGAGUUCUACAGUCCGACGAUCCUGAGCAGAUAAGGCCUGUUCUUGACUGGUUGAACCUUGCUCAGAACCCUGCUCCCCUGGCUGUUGAGGACUACAAGUUGUGGGCUGCUGAGGUUGUUGUGGUGUAAACUGGGAGAGCUGCAACAGAGGAUUGAGCAUCA
# B18: chr1:114133195:114133196:+_ENSG00000081026_ENST00000369615|hu_hu|motif|central (ssRNA)
# RNA: GGGAGUUCUACAGUCCGACGAUCCAUUUCCCAGUUUUUGGGCAGUGGUUCCAGAGUCUCAUCUCUCAUCAUAUAAUUUCGGAAGUCCAUGGAGCUAUUUGUUUGGUUGUAACUUGGAACAGUCUUCAUCCAGUCAGAUGACUCCAACAGAGGAUUGAGCAUCA
# B19: chr7:80571614:80571615:-_ENSMUSG00000078671_ENSMUST00000169922|mus_hu|motif|central (ssRNA)
# RNA: GGGAGUUCUACAGUCCGACGAUCAUAUACAAGAAUCAAAAGUACAGCAGUUUUACAAUGUAGGAAAAUUUAAUACAUACGGUAUAAACAACAUUAUUUACAUCAGAAAUCACUAGGACAGUGGCAUUUUUCACAAAUAUAAAUCAACAGAGGAUUGAGCAUCA
# B20: chr15:50791314:50791315:+_ENSG00000138592_ENST00000307179|hu_hu|FALSE|FALSE (ssRNA)
# RNA: GGGAGUUCUACAGUCCGACGAUCACCAUUAUCCUGAUAAGCAUUUCAAGAGUUGUGUUGCUGAGCCUUUUAAAAGAUAACUAGUUUAUAACCUAUGUCUCCUUAUGUGGCUACAUCAGUUACUCGUGGUCCCAAUGAAGUAUACAACAGAGGAUUGAGCAUCA
# B21: chr19:14671312:14671313:-_ENSMUSG00000024642_ENSMUST00000052011|perfect_dup|FALSE|FALSE (ssRNA)
# RNA: GGGAGUUCUACAGUCCGACGAUCAGCCUGUAAAAACUGAAACUCUUCCUUAAUCCGAUCACAGGAUUCUGAAAUUGUAAAUUUGAAGGGUUGAGCAGGCUGAUGCGGUGCCGGGUGGCGCGUCUGCGGGUACAUCUUGCUCAGCAACAGAGGAUUGAGCAUCA
# B22: chr4:148551591:148551592:-_ENSMUSG00000063077_ENSMUST00000060537|mus_mus|motif|central (ssRNA)
# RNA: GGGAGUUCUACAGUCCGACGAUCACCUUACAAAAUUAAAUAUCCCUGUAAAUUAGACAAGAAGCAGCAGGUAACAAAGUCGGUGCUUUGAAAUAUGUGCCAGGAAAAAUCAUGUUUUAGACCCCAAACACCUUUCACAACCAUCAACAGAGGAUUGAGCAUCA
# Biological target: T1, UNK ZnF1-3
# Experiment: nsRBNS (natural sequence RNA bind-n-seq); RBNS binding buffer (assumed for nsRBNS): 25 mM Tris pH 7.5, 150 mM KCl, 3 mM MgCl2, 0.01% Triton X-100, 500 ug/ml BSA, 20 U/ml SUPERase-In, 4 C; UNK is unkempt and MSI1 is Musashi-1; names of the RNAs are library labels; protein concentration not given here; high values mean tight binding
row,Binder,binding signal
1,B1,0.609 enrichment R
2,B2,0.972 enrichment R
3,B3,0.572 enrichment R
4,B4,1.61 enrichment R
5,B5,0.544 enrichment R
6,B6,0.969 enrichment R
7,B7,1.17 enrichment R
8,B8,0.67 enrichment R
9,B9,1.92 enrichment R
10,B10,1.44 enrichment R
11,B11,0.766 enrichment R
12,B12,0.892 enrichment R
13,B13,0.802 enrichment R
14,B14,1.5 enrichment R
15,B15,0.946 enrichment R
16,B16,0.272 enrichment R
17,B17,1.12 enrichment R
18,B18,0.629 enrichment R
19,B19,1.01 enrichment R
20,B20,1.01 enrichment R
21,B21,1.96 enrichment R
22,B22,1.58 enrichment R
